The supplement of paper PMC10126150
Sequences with one replicate were seen in a single cluster, so their values are uncertain.

Test system: ATP
Test: switch fluorescence ratio, 500 uM ATP over buffer (Cy3 cluster intensity, sum of 5 cycles each) (fold (ratio)); higher = stronger signal-on switching upon ATP binding; sequences stand for … in TCGTCGGCAGCGTCAGATGTGTATAAGAGACAGTTTTTTTTTTTTTTTTTTTTTTTTT…TC
Conditions: aptamer strand: ATP DNA aptamer (quencher-CACCTGGGGGAGTATTGCGGAGGAAGG + anchor), 100 nM annealed; ATP concentration: 500 uM; one replicate
Procedure, shortened: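 After annealing to 100 nM quencher-labelled ATP aptamer, Cy3-labelled switching-strand clusters on a modified Illumina MiSeq flow-cell were imaged in selection buffer. A second image followed after 15 min with 500 uM ATP at 22 °C, and five such buffer/ATP cycles were done, each separated by NaOH stripping and re-annealing. The fluorescence ratio, averaged per switch-domain sequence, is summed target-cycle over summed buffer-cycle Cy3 intensity per cluster, with clusters outside 100-1000 RFU excluded.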
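Further: ATP exposure 15 min at 22 °C before imaging.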

Sequence | switch fluorescence ratio
TAGTAGCTTG | 0.976
ACCTTATTGC | 1.12
CTGCGGACTG | 1.04
AATTACAGTT | 0.998
CTGCCTGTTA | 0.973
AGTCAGTCCC | 1.05
GACGTCTATA | 1.08
CGGTAAAGCT | 1.13
AGGCTTGAGA | 1.01
TGCCCGGGAA | 1.04
TTTCAGAATT | 1.03
CTGATCGATG | 1.06
ATTGGCACGT | 0.991
GTATCGTGGA | 0.99
GGACTTTGCC | 1.03
TTTTGGTGAC | 1.06
TGCATCTCGA | 1.02
TTGAGTAGCT | 1.01
TTTCCAAACC | 1.33
ATACAGAGCC | 1.04
ATATTTGCGG | 0.994
GAGTGGATCG | 0.98
AAAAACGGAT | 0.977
GGCTGGTTCT | 0.988
GTGCAAGATT | 1.03

Sequence | switch fluorescence ratio
CCATATAACC | 0.978
TCGGGCCCTC | 1.02
TCAGCGTCAC | 1.23
TGCCGTCGG | 1.06
GCAGCTTCGC | 0.988
ATTCGTTTCG | 0.996
TAATCAGAAC | 0.93
CCTGCATGTT | 1.28
ACAAATGTCA | 0.993
GAAGTTTCAA | 1.04
TGTGGCTTGG | 0.978
GAGTAATAAT | 1.03
CGAATGACAA | 1.04
GGCCGTTAAG | 1.01
CTTTCGTAAT | 3.45
TGTGGATGAC | 1.02
GCTCTGGGAT | 1.33
CATCGGATGG | 1.08
CCGTAAGTCA | 1.27
CACGTGGTGT | 0.998
GCAGATGGGT | 0.989
ACCGGAAATC | 1.23
ATTATCTCTG | 0.965
CATATTTGTG | 1.02
GAAGATTATC | 1.1

Sequence | switch fluorescence ratio
AACAGGGCT | 0.994
GTACGTCTCC | 1.06
GTGTGCGTTT | 1.02
GATTGTACGG | 1.03
CCATACGGCG | 1.03
GTGGGTAAGA | 1.02
ACAATTCCTT | 1.03
GCGACATGCT | 1.01
TGTTATGTC | 1
TCGCAAAAAG | 1.07
CCGGTCCTTT | 0.979
CGTACCTCG | 1.08
GACGCCCGCT | 1.31
GCACGTTAAC | 1.31
TGCGGCTGTG | 1.01
TACATGTCTA | 1.03
GGGGCGCGAA | 0.972
CTCATTCGAG | 1.01
CCAGAGACGG | 1.03
ACAAGTCAAT | 1.05
TCATCCTTTT | 0.989
ACTTAGTTT | 1.01
GGCAGGACCT | 1.15
CTAACTGTTT | 0.962
GCCCCAGACG | 1.15

Sequence | switch fluorescence ratio
GAGCGTTTTT | 1.03
CATGTCATCA | 1.01
CGATGGTGTA | 0.988
AGTCATTATA | 0.982
TACGACCGCC | 1.78
CACTGGGCGC | 0.994
CCTCAGGTTG | 2.33
TTCATAGACC | 1.05
CGGAAGGAGA | 1.03
GTGGTAGATC | 1.1
TCACTAATCG | 1.05
TCAAATCTAT | 0.977
AGAGGGACTG | 1.03
ATTGGTGGA | 1
CAGGCTAACA | 1.01
GGTAAAGCTT | 1.01
GTGGACAGTA | 0.978
TAGTTTGTT | 0.95
CCGAATCGGC | 1.18
CCTTATTCCC | 1.36
TGGGAACAAT | 0.97
GGACGTTACA | 1.61
TGCCAAGTTT | 1.01
GGCTGCTGGC | 1.01
TGCGCCTGGA | 1.03

Sequence | switch fluorescence ratio
ATCCACGGTA | 1.19
ATAGCGGTTA | 0.998
GTAGTAGTAC | 3.04
CTATCAGCTC | 1.06
TTGGTGCTTT | 0.973
CTTGCTGCGC | 1.31
AACTCTG | 1
CCTTCTTCAT | 1.03
TTGAAACGGG | 0.948
CGCTGATGTT | 1.03
AGGGAGATCC | 1.01
AGGTAGGAAT | 0.992
AAGCACGTGG | 0.988
CAGGGAATTT | 0.988
AAGGTAAAAC | 1
AAGGAGTGTT | 1.02
CTGATAGGCC | 1.01
GAATATGCTC | 1.05
TGTAGCTCG | 1.08
AGGTAAGACA | 0.978
AAGGCACGGC | 1.03
GTATTCTAAG | 0.982
TGACCGGGTC | 1.01
ATGCTGGCTT | 1.05
TTTTGGACGT | 0.975

Sequence | switch fluorescence ratio
GGTTGAACGA | 1.02
TGGACGGTAA | 1.02
GAGGGAATCT | 1.04
ACGGCAAACT | 1.53
ACGTGACCGC | 1.26
TGGCTTGTCG | 1.01
ATCCCGCCCC | 1.57
ATCAAACCAG | 1.04
AGATTATTAG | 1
TCCAACCGGG | 1.07
TCGTGATGGA | 1.05
GGAATCAACG | 0.994
CTAAGGAGGA | 1.05
GAATCTTGTT | 0.998
CTCGTAAAAA | 1.19
TACTGACTTT | 1.07
AGAATGTGCG | 0.993
GGTGGGTAAC | 0.959
ATACCTAGAC | 1.03
AATTGCGCTG | 0.896
TACAAGTTGA | 0.952
TCATCTCCCA | 1.23
ACTACTCAAT | 2.55
CGTAACACGG | 0.973
TAAGTTTACG | 1.01

Sequence | switch fluorescence ratio
AAGGATAAGT | 0.997
AGACTTAGAG | 0.964
CTGGGTGAAC | 0.948
CCGGCGTAGC | 1.01
GACAGTTGAG | 1.01
ACTCTATCAT | 1.06
GTTACCCTG | 0.985
GAAGGTCATG | 1.03
GGGCCTCCCC | 1.02
GAACAAGACA | 0.978
ACTGAACGTC | 1.26
TTATGACGAC | 1.05
ATATTCAGTC | 1.02
GCGTGCGGG | 1.03
GGTGACACGA | 1.02
CGGCCAGGTA | 1.22
GATTTGTATG | 0.97
GATTGGTGGA | 0.998
CGAGCAATGT | 1.08
TTGAATAAAT | 1.02
TTTAGTCATA | 1.02
AGTAGATACC | 1.02
TACGCTCGGA | 1.02
TCCAAGACTA | 1.04
ATGGAAACTC | 1.02

Sequence | switch fluorescence ratio
ACTTATTGCG | 0.938
CGAAAATTTG | 1.02
ATAACTCGCA | 1.1
CCTGCGTAGA | 1.36
TTCACGTCCC | 1.07
TGGCCGTCTT | 0.879
AGACTATCGA | 1
CTAACTTTTT | 1.07
TCGTACGGTT | 0.974
AAGTCGAATC | 1.03
GGGTCATGC | 1.01
TGGATAGTGG | 0.986
TCTACAGGGG | 1.41
AAGCCTGGTA | 0.985
TTGTGCTGAA | 0.988
ATTCTCTCAG | 0.975
AAGTGGGCAC | 0.976
TCCAGCCGAT | 1.03
CTAGTGCTTA | 1.01
TGGTCAGTCA | 0.973
CCCAAAGTGC | 1.66
ATTTAATAGC | 1.01
GGTCTAGTTT | 1.01
TAGTTTCAGT | 0.945
CAATGAAAGA | 0.981
